Measurements taken from paper PMC4336329 (PLoS ONE, 2015).
Screen size: about 310,000 compounds; about 2,200 (0.71%) showed an effect of 50% or more. Effects have a minus sign here. The list shows a part of the results.

Target: human ether-à-go-go-related gene (hERG) potassium channel (human, UniProt Q12809)
Test: primary screen, population patch clamp on CHO cells stably expressing hERG

Chain of human ether-à-go-go-related gene (hERG) potassium channel (Q12809 whole entry, looked up): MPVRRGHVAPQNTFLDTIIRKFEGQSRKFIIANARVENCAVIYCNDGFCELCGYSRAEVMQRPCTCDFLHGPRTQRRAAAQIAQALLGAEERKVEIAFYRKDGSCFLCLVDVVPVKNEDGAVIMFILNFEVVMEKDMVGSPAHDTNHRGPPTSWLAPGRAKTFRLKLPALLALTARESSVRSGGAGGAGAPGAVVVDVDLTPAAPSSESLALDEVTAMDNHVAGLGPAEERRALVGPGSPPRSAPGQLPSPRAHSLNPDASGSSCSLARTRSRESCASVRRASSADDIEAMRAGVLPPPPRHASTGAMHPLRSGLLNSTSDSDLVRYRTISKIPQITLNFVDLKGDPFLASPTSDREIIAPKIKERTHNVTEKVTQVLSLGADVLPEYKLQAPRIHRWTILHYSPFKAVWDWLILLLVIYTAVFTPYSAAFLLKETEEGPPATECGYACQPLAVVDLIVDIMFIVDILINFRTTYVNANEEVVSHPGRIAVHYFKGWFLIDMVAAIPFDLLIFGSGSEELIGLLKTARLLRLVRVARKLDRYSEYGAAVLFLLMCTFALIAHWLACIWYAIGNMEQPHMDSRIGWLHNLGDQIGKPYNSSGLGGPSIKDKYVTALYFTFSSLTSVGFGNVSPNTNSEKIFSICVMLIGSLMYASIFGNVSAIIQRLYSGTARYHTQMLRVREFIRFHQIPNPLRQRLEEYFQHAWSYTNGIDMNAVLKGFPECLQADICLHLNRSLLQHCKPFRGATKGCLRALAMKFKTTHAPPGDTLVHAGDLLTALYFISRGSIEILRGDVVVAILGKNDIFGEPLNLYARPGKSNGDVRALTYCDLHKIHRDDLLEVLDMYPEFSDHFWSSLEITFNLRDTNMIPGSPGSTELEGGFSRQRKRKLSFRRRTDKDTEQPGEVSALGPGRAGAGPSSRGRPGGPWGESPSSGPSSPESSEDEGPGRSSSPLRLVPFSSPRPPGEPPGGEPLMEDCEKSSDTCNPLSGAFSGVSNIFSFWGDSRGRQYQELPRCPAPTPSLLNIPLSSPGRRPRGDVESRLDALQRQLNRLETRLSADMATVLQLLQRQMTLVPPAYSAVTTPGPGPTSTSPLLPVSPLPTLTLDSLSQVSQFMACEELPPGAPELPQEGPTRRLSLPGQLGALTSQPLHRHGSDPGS

**Q.** Which “hERG current change (%, negative = inhibition) at 1uM” value does the source give for `Cc1cc(OCCn2ccnc2)cc(C)c1Cl` here?
**A.** The value was 15%.

**Q.** Which “hERG current change (%, negative = inhibition) at 1uM” value does the source give for `O=C(NCc1cccc(Br)c1)c1cc(-c2ccccc2)nn1CC1CC(c2cccc([N+](=O)[O-])c2)=NO1` (stereo not shown) here?
**A.** Its value is 15%.

**Q.** With `O=C(/C=N/O)NCCCn1ccnc1` as the molecule, how does the “hERG current change (%, negative = inhibition) at 1uM” value read?
**A.** The value was 5.65%.

**Q.** Which “hERG current change (%, negative = inhibition) at 1uM” value does the source give for `Cc1ccc2c(c1)c1ncn(Cc3ccc(F)cc3)c(=O)c1n2C` here?
**A.** Its value is 3.07%.

**Q.** How did the “hERG current change (%, negative = inhibition) at 1uM” value turn out when `CCOC(=O)c1c(-c2ccc(OC)cc2)nc2nonc2c1N` was run?
**A.** The value was -14.4%.

**Q.** How did the “hERG current change (%, negative = inhibition) at 1uM” value turn out when `CCCc1[nH]nc2c1C(c1cccc(OC)c1)C(C#N)=C(N)O2` (stereo not shown) was run?
**A.** The value was -8.04%.

**Q.** With `Cn1c(CNC(=O)CCNC(=O)c2ccccc2)cc(=O)n(C)c1=O` as the molecule, how does the “hERG current change (%, negative = inhibition) at 1uM” value read?
**A.** Its value is 14.1%.

**Q.** With `CC(C)N1CCN(Cc2cccc3c2OCO3)CC1CCO` (stereo not shown) as the molecule, how does the “hERG current change (%, negative = inhibition) at 1uM” value read?
**A.** Its value is 12.7%.

**Q.** How did the “hERG current change (%, negative = inhibition) at 1uM” value turn out when `Clc1ccc(NC2=NCCC2)cc1Cl` was run?
**A.** Its value is 2.32%.

**Q.** How did the “hERG current change (%, negative = inhibition) at 1uM” value turn out when `CCn1c(CSc2nc3ccccc3n2C)nc2ccccc21` was run?
**A.** Its value is -1.84%.

**Q.** For `CCOc1ccc(C(=O)CCC(=O)N(CC)CC(=O)Nc2c(F)cccc2F)cc1`, which “hERG current change (%, negative = inhibition) at 1uM” value is on record?
**A.** Its value is -10.3%.

**Q.** Which “hERG current change (%, negative = inhibition) at 1uM” value does the source give for `O=C(Nc1ccccc1)c1cccc(N2CCCC2=O)c1` here?
**A.** The value was 9.77%.

**Q.** How did the “hERG current change (%, negative = inhibition) at 1uM” value turn out when `O=C(Nc1ccccc1)NC(Cc1ccc(O)cc1)C(=O)O` (stereo not shown) was run?
**A.** Its value is 2.06%.

**Q.** Which “hERG current change (%, negative = inhibition) at 1uM” value does the source give for `CC(C)Cn1c(N)c(C(=O)COC(=O)CCNS(=O)(=O)c2ccccc2)c(=O)n(C)c1=O` here?
**A.** Its value is -8.67%.

**Q.** How did the “hERG current change (%, negative = inhibition) at 1uM” value turn out when `O=C(O)CC(NC(=O)C12CC3CC(CC(C3)C1)C2)c1ccc(Cl)cc1` (stereo not shown) was run?
**A.** Its value is 8.96%.

**Q.** For `CN(C)S(=O)(=O)Oc1ccc(C(=O)Nc2cccc(C(F)(F)F)c2)cc1`, which “hERG current change (%, negative = inhibition) at 1uM” value is on record?
**A.** Its value is 15.2%.

**Q.** How did the “hERG current change (%, negative = inhibition) at 1uM” value turn out when `COc1cc(C(=O)Cc2nc3ccccc3n2C)cc(OC)c1OC` was run?
**A.** The value was 13.8%.

**Q.** For `Cc1ccc(C)c(NC(=O)NNS(=O)(=O)c2ccc(C)c(C)c2)c1`, which “hERG current change (%, negative = inhibition) at 1uM” value is on record?
**A.** Its value is 12.5%.

**Q.** `Cc1ccc(C2=NN(C(=O)CN3CCN(C4CCS(=O)(=O)C4)CC3)C(c3ccco3)C2)cc1` (stereo not shown) was tested. Which “hERG current change (%, negative = inhibition) at 1uM” value did it give?
**A.** Its value is 10.3%.

**Q.** For `CN=C(Nc1cccc(Cl)c1)SC1CC(=O)N(c2ccc(OC)cc2)C1=O` (stereo not shown), which “hERG current change (%, negative = inhibition) at 1uM” value is on record?
**A.** The value was 12.8%.

**Q.** With `COC(=O)c1ccc(C(=O)OC)c(NC(=O)COC(=O)c2ccc(OC)c(OC)c2OC)c1` as the molecule, how does the “hERG current change (%, negative = inhibition) at 1uM” value read?
**A.** Its value is 17.6%.

**Q.** With `CCOC(=O)C1CCCN(C2CC(=O)N(c3cccc(C(F)(F)F)c3)C2=O)C1.Cl` (stereo not shown) as the molecule, how does the “hERG current change (%, negative = inhibition) at 1uM” value read?
**A.** Its value is -2.97%.

**Q.** With `CCC(COC)NCc1cn(-c2ccc(OC)cc2)nc1-c1cccc(F)c1` (stereo not shown) as the molecule, how does the “hERG current change (%, negative = inhibition) at 1uM” value read?
**A.** Its value is -17.6%.

**Q.** Which “hERG current change (%, negative = inhibition) at 1uM” value does the source give for `COC(=O)CSc1nc2c(c(-c3ccco3)c1C#N)CCCC2` here?
**A.** Its value is 4.99%.

**Q.** For `COc1ccc(NC(=O)C2C3C=CC(C3)C2C(=O)NCc2ccccn2)c(OC)c1` (stereo not shown), which “hERG current change (%, negative = inhibition) at 1uM” value is on record?
**A.** Its value is 11.8%.
